Hit rate of the full screen: of about 52,000 compounds, about 4,300 (8.3%) were called active. Cut-off read from the data, not from the text of the source: active = survival mostly below about 52% (no sharp cut-off); inactive = mostly above about 56%. The list shows a part of the results.
Each compound was assayed on DeltatarO mutant (assay: S. aureus survival, RN4220 and DeltatarO strains – OD600, teichoic acid synthesis inhibitors, primary screen (AID 463173)). Conditions: S. aureus RN4220 wild type/DeltatarO growth, OD600, 18 h, hits give low values, screened at 18.75 µg/mL (by protocol).
For CCCCOc1ccc(C2=NC(c3ccncc3)=Nc3ccc(Br)cc3N2)cc1, the survival was active: 12%.
For CCCC(=O)Nc1ccc(Cl)c(NC(=O)c2cccnc2Cl)c1, the survival was inactive: 106%.
CCc1c(C)sc2c1CCN(C(=O)Nc1ccccc1C(F)(F)F)C2c1ccccc1 (centres undefined) was tested, and the survival was inactive: 70%.
For Cc1ccccc1NC(=O)c1c(NC(=O)C(C)Oc2cccc(Cl)c2)sc2c1CCCC2 (centres undefined), the survival was active: 40%.
With COc1cc(Cl)c(C)cc1NC(=O)CCc1c(C)nc2cc(-c3cccc(F)c3)nn2c1C the survival was inactive: 74%.
In the case of CCn1c(C(=O)N2CCCC(C(=O)NCCCOC)C2)cc2sccc21 (centres undefined), the survival is reported as inactive: 82%.
In the case of CC1CC(C)(C)NC(=S)O1 (centres undefined), the survival is reported as inactive: 77%.
With Cc1ccc(NC(=O)c2oc3ccccc3c2NC(=O)Cc2cccs2)cc1 the survival was inactive: 51%.
For COc1ccc2c(c1)cc1c(=O)n(CC(=O)NC3CCCCC3)nc(C)n12, the survival was inactive: 70%.
In the case of CC1=C(C#N)C(=O)NC(C)(C)C1, the survival is reported as inactive: 76%.
CCc1ccc(NC(=O)CC2C(=O)N(c3cccc(OC)c3)C(=O)N2Cc2ccco2)cc1 (centres undefined) was tested, and the survival was active: 25%.
With CCOc1ccccc1NC(=O)Nc1nnc(N(C)Cc2ccccc2)s1 the survival was active: 53%.
For CSc1nnc(C2CCCN2)n1C (centres undefined), the survival was inactive: 58%.
In the case of COc1ccccc1NC(=O)CCS(=O)(=O)c1ccc2nc(C)sc2c1, the survival is reported as inactive: 45%.
In the case of Cc1ccc(C(Nc2ccccn2)c2ccc3cccnc3c2O)cc1 (centres undefined), the survival is reported as active: 1%.
For COc1cc(Cl)c(NS(=O)(=O)c2ccc3c(c2)CC(C)N3C(=O)C2CCC2)c(OC)c1 (centres undefined), the survival was inactive: 80%.
For CC(=O)N1CCC(N(C(=O)Nc2ccc(C)c(F)c2)C(C)C)CC1, the survival was inactive: 72%.
With Cc1nc2ccccn2c(=O)c1NC(=O)c1c(F)cccc1F the survival was inactive: 83%.
For CC1CCN(C(=O)c2c(NC(=O)c3ccccc3F)sc3c2CCC(C(C)(C)C)C3)CC1 (centres undefined), the survival was active: -4%.
O=C(c1cccs1)N(Cc1cccnc1)c1nc2ccc(F)cc2s1 was tested, and the survival was inactive: 79%.
For Cc1ccc(OCC(=O)Nc2ccccc2C(=O)OCc2cc(=O)n3nc(C4CC4)sc3n2)cc1, the survival was inactive: 94%.
In the case of COc1cccc(C(=O)Nc2cc(-c3cn4cccnc4n3)ccc2C)c1OC, the survival is reported as inactive: 80%.
CCOc1ccc(NC(=O)c2sc3nc4c(cc3c2N)CCCCCC4)cc1 was tested, and the survival was inactive: 57%.
With NCCCCCc1nnc(SCc2ccc(F)cc2)o1 the survival was inactive: 62%.
With CCCc1nn2c(=O)cc(COC(=O)c3cccc(NC(=O)CCc4ccccc4)c3)nc2s1 the survival was inactive: 131%.
For COCCNC(=O)CSc1c2c(nc3cc(Cl)ccc13)CCCC2, the survival was inactive: 71%.
COCCCNC(=O)c1ccc2nc(Cc3ccc(OC)cc3)oc2c1 was tested, and the survival was inactive: 69%.
CCOc1ccc(CNC(=O)C2CCN(S(=O)(=O)N3CCCCC3)CC2)cc1 was tested, and the survival was inactive: 72%.
With CCn1cc(S(=O)(=O)c2ccc(OC)cc2)c(=O)c2cc(F)c(N3CCC(C)CC3)cc21 the survival was inactive: 83%.
Cc1ccc(CN(Cc2ccco2)C(=O)COc2c(C)cc(C)cc2C)cc1 was tested, and the survival was inactive: 54%.
In the case of CCCN(CCC)CCCNC(=O)C1CCC(CNS(=O)(=O)c2cccc3nsnc23)CC1 (centres undefined), the survival is reported as inactive: 94%.
CCCCNS(=O)(=O)c1ccc2nc(-c3cccnc3)cc(C(=O)NCCC)c2c1 was tested, and the survival was inactive: 80%.
Oc1ccc(-c2nc3ccccn3c2Nc2ccc3c(c2)OCCO3)cc1 was tested, and the survival was inactive: 75%.
CC(C)C(c1nnnn1C(C)(C)C)N(Cc1cc2cc3c(cc2[nH]c1=O)OCCO3)C1CCCCC1 (centres undefined) was tested, and the survival was inactive: 109%.
For Cc1ccc(C)c(N2CCN(C(=O)Cn3c(=O)c4cccn4c4ccc(F)cc43)CC2)c1, the survival was inactive: 64%.
For Cc1ccc(NC(=O)CSCn2nnc3c(=O)[nH]c(Cc4ccc(F)cc4)nc32)c(C)c1, the survival was inactive: 94%.
For COc1cc2c(=O)c(C(=O)c3ccc(C)c(C)c3)cn(Cc3ccccc3)c2cc1OC, the survival was inactive: 79%.
Cc1cccc(N2CCN(C(=O)c3ccc4c(c3)N(Cc3ccccc3F)C(=O)c3ccccc3S4=O)CC2C)c1 (centres undefined) was tested, and the survival was inactive: 88%.
Cc1cc(C)c2nc(NC(=O)c3ccc(S(=O)(=O)N4CCCC4)cc3)sc2c1 was tested, and the survival was inactive: 102%.
In the case of COc1ccc(-c2cc3nc(C)c(CCC(=O)N4CCN(c5ccccc5)CC4)c(C)n3n2)c(OC)c1, the survival is reported as inactive: 79%.
Cc1c(CC(=O)NCc2ccccc2)c(=O)oc2c(C)c(O)ccc12 was tested, and the survival was inactive: 66%.
CC(=O)Nc1nonc1-c1nnc(SCc2ccc(F)cc2)n1C was tested, and the survival was inactive: 44%.
In the case of COc1ccc(C(C#N)N2N=C(C)CC2c2ccccc2)cc1OC (centres undefined), the survival is reported as inactive: 108%.
In the case of CCCCSc1nnc2n(-c3cccc(C)c3)c(=O)c3c4c(sc3n12)CCCC4, the survival is reported as active: 1%.
Fc1ccccc1Oc1ncnc2c1oc1ccccc12 was tested, and the survival was active: 37%.
In the case of CCOC(=O)C1CCN(C(=O)CSc2n[nH]c(-c3ccccc3)n2)CC1, the survival is reported as inactive: 97%.
In the case of Cc1cccc(OCc2nc(C#N)c(NCc3ccccc3Cl)o2)c1, the survival is reported as inactive: 53%.
Cc1ccc2nc(COc3ccc(NC(=O)COc4ccccc4F)cc3)cc(=O)n2c1 was tested, and the survival was inactive: 118%.
For COc1ccc(NC(=O)CSc2nc3ccccc3[nH]2)cc1, the survival was inactive: 70%.
With COc1ccc(CC(=O)OC2CCCN(C)C2)cc1 (centres undefined) the survival was inactive: 58%.
O=C(COc1ccccc1Cl)Nc1nc2c(s1)CCCC2 was tested, and the survival was inactive: 55%.
With CCOc1cc(C2C(C(=O)OC)=C(C)NC3=C2C(=O)c2ccccc23)c(Br)cc1OC (centres undefined) the survival was inactive: 52%.
In the case of CCOCCCNC(=O)Cn1nc(C)n2c(cc3cc(C)ccc32)c1=O, the survival is reported as inactive: 105%.
With CCc1ccc(CNC(=O)c2ccc(CSc3nc4ccncc4n3Cc3ccc(OC)cc3)cc2)cc1 the survival was inactive: 71%.
With COc1ccc(N2CCN(C(=O)Cc3coc4ccc(C)cc34)CC2)cc1 the survival was inactive: 105%.
For O=S(=O)(Nc1cccc(Cl)c1)c1ccc2[nH]c3c(c2c1)CCCCCC3, the survival was inactive: 109%.
In the case of CC(C)Oc1cccc(NC(=O)C2CCN(S(=O)(=O)Cc3ccccc3)CC2)c1, the survival is reported as inactive: 67%.
For COc1ccc(C)cc1NC(=O)C(=O)NCCc1sc(-c2ccc(Cl)cc2)nc1C, the survival was inactive: 78%.
For CCOC(=O)c1c(NC(C)=O)c2c3c(sc2n1Cc1nc(-c2ccc(Cl)cc2)oc1C)CCCC3, the survival was inactive: 82%.

From PubChem BioAssay AID463173 (ICCB-Longwood Screening Facility, Harvard Medical School, 2010)
